From PMC12136788 come the findings set out here.

This is one part of the list.

B1: chr17:40866619:40867186:-|CDS|ENSG00000187242|control|control|control (ssRNA)
RNA: GGGAGUUCUACAGUCCGACGAUCUGAUAGAUUAGCUUCCUACCUGGAUAAGGUGCGAGCUCUAGAAGAGGCUAAUACUGAGCUAGAAAAUAAAAUUCGAGAAUGGUAUGAAACACGAGGAACUGGGACUGCAGAUGCUUCACACAACAGAGGAUUGAGCAUCA
B2: chr12:49127802:49127903:-|3pUTR|ENSG00000123416|msi1_unk|FALSE|overlapping (ssRNA)
RNA: GGGAGUUCUACAGUCCGACGAUCAUGUCAUGCUCCCAGAAUUUCAGCUUCAGCUUAACUGACAGACGUUAAAGCUUUCUGGUUAGAUUGUUUUCACUUGGUGAUCAUGUCUUUUCCAUGUGUACCUGUAAUAUUUUUCCAUCACAACAGAGGAUUGAGCAUCA
B3: chr10:91942452:91942553:+|CDS|ENSG00000095564|unk|FALSE|unique (ssRNA)
RNA: GGGAGUUCUACAGUCCGACGAUCAGUUCUAUGGAAGAUUCACCUACUACAGAGCGAUUGAAUUUUGACAGAUUUGAUAUAUGUAGAUUGUUACAACAUGGUGCAUCACUCCUGGGAUCUGCUGGUGCCGAAUUUGAAGUCCAACAACAGAGGAUUGAGCAUCA
B4: ENSG00000166402:stop:overlap|stop_codon|ENSG00000166402|stop_codon|NA|stop_codon (ssRNA)
RNA: GGGAGUUCUACAGUCCGACGAUCGUGCACUGCAGGCCUUUGCCAUUGCCCUGUCCAGCUUCGACAGCAAGCUGGCGUGCGAGUAGAGGCCUCUUCGUGCCCUUUGGGGUUGCCCAGCCUGGAGCGGAGCUUGCCUGCCUGCCUCAACAGAGGAUUGAGCAUCA
B5: ENSG00000107863:be:win_401|CDS|ENSG00000107863|bound_else_gene|NA|bound_elsewhere_windowed (ssRNA)
RNA: GGGAGUUCUACAGUCCGACGAUCGCAAAACCUAUUCCCAAGUAAUUGCUUUAAUUCAAAACAGUGAUACAACAUUGGAACUUAGUGUUAUGCCAAAAGAUGAAGACAUUCUCCAAGUGCUACAGUUUACAAAGGAUGUCACAGCAACAGAGGAUUGAGCAUCA
B6: chr14:102729990:102730091:+|3pUTR|ENSG00000089902|msi1|total|mutant (ssRNA)
RNA: GGGAGUUCUACAGUCCGACGAUCUGCGAUGCUCUUUCUGCCAGUCCCUGAAUCUCUGCAGCUUCUCUUACCUGUCUUACCUGCCGUAAAGCACAAUUGCAGUGGCGUCGCAUUCAGAAGAAGGGAAGGUCAGCAGAGGCUAUGCAACAGAGGAUUGAGCAUCA
B7: chrX:112630647:112631419:-|three_prime_utr|ENSG00000182508|control|control|control (ssRNA)
RNA: GGGAGUUCUACAGUCCGACGAUCAGAAGAUUGGAGAGGGUGGGAAAGGGGAGGAGGGAGCCCUGAAAAGAGGUACUAAGGAUUAGGCCAUUUGUCAUCUGACUGUCAUUAGCAUAGCCUAGUGUUUGCAUGCUUUUUAAACUACAACAGAGGAUUGAGCAUCA
B8: chr9:83806335:83806438:-|CDS|ENSG00000165113|unk|FALSE|unique (ssRNA)
RNA: GGGAGUUCUACAGUCCGACGAUCUGGCUCUGAUUCUGAACCUGGAAAAGGUAAAGGUCGAAAUACUGGAAAGUCUCAAACUUUAGGAAGCAAGUCAACUACAAAUGAGAAAAAAAGAGAGAAAAGAAGAAAAAAGAAGGAACACAACAGAGGAUUGAGCAUCA
B9: chr8:88032264:88032379:-|3pUTR|ENSG00000156103|unk|FALSE|bound_elsewhere (ssRNA)
RNA: GGGAGUUCUACAGUCCGACGAUCACUCCUUAUAAUGUUGCGUCAUUAAAGGUCAAGGGGUCAUGCUAUUAAUCUCAUUGCUAUAGACCAUUAACAUGACUGAACUUUUCCACAAAGUACUUAUGUUUACAAUGCUAUAACCCUCAACAGAGGAUUGAGCAUCA
B10: chr15:42211119:42211220:-|3pUTR|ENSG00000103978|unk|total|mutant (ssRNA)
RNA: GGGAGUUCUACAGUCCGACGAUCAGGUUACAUCUUGCAGAGGUUGUUUUGAGAAAAAAGGGCCCUUCUGAGUUAAGGAGCCACCGUUCUAUCAAUGAUCAAAAGAAAAAAAAAAAAAGAGAAACUGUUACAGUAUGAUUCAGACAACAGAGGAUUGAGCAUCA
B11: chr7:151349087:151349194:+|CDS|ENSG00000013374|unk|total|mutant (ssRNA)
RNA: GGGAGUUCUACAGUCCGACGAUCCCUUGCUAAGCAGUACUCUGACAGACCCGAAUGCUGUGAAAAUGAAGCCGAAAAGGUAACCGAAGAAAUACGUUGCAAGGCAAUUGAGCGUGGAACAGGAAAUGACAAUUACCGAACAACCAACAGAGGAUUGAGCAUCA
B12: chr9:34610807:34611296:-|CDS|ENSG00000164967|control|control|control (ssRNA)
RNA: GGGAGUUCUACAGUCCGACGAUCCAAGCUACGUUUCCUUCAGACUGAGGACAGCUGGGUCCCAGCCUCACCUGACACAGGGCUAGACCCCCUCACAGUGCGCCGCCAUGUGCCUGCAGUGUGGGUGCUGCUCAGCCGGGACCCCAACAGAGGAUUGAGCAUCA
B13: chr16:20924479:20924582:+|3pUTR|ENSG00000102897|unk|FALSE|unique (ssRNA)
RNA: GGGAGUUCUACAGUCCGACGAUCCUACUAUAAAACUAUGUACCACUCUCAGAAUAUUCUUAGGCUUUUUUUUUUUCAAGUUAUAGAUUUGCUUAAAGUGAGGUUUUUUGGUGUGUGCUUUUUUGUUGUCUUUUGACCCUUCCACAACAGAGGAUUGAGCAUCA
B14: chr1:6592219:6592320:-|3pUTR|ENSG00000162413|unk|total|mutant (ssRNA)
RNA: GGGAGUUCUACAGUCCGACGAUCCCCAAAGCCGCCUUGGCUUGAGUUUUUGUCCUUGCCUCCUUUUCCGAGAAGAGGGCAUUCCGACUGCAUUUUCCUGGUUAAAGAAGGUUAAAGCAAAUGUUUAUUGCCUUUUCCCGUGAACAACAGAGGAUUGAGCAUCA
B15: chr13:77097425:77097526:-|CDS|ENSG00000005810|msi1|total|mutant (ssRNA)
RNA: GGGAGUUCUACAGUCCGACGAUCAGAAAAGGCAGAAGUCCGGCCCAGGGGUAAUUUGUUUGGAGAGAUGGCCCAGCUGGCAGCCGGAGGACCAGAGAAAGAUACCAUCUGUGAACUGUGUGGGGAGUCACAUCCAUACCCGGUCAACAGAGGAUUGAGCAUCA
B16: ENSG00000141127:stop:overlap|stop_codon|ENSG00000141127|stop_codon|NA|stop_codon (ssRNA)
RNA: GGGAGUUCUACAGUCCGACGAUCAUUCAUCAUGUAUGGAGCUAUCAAAGAAAAUUGCAGACUUUUUCCCCCUUUCUCUUCUCUAGGCGGCUAGGGGUGGAGAUGGGCAAAGUGCAGGUUUACCAGGAACCUAACAGAGAAACACAACAGAGGAUUGAGCAUCA
B17: chr10:75150949:75151073:+|CDS|ENSG00000156671|unk|total|mutant (ssRNA)
RNA: GGGAGUUCUACAGUCCGACGAUCUGUUCGAAGAUUGGACCCAGAAUACUGGAAGACUAUACUGAGUUGUAUAUAUGUUUUUACCGUAUUUGGAUUUACAUCUUUCAUUAUGGUUACCGUCCAUGAGCGAGUGCCUGACAUGCACAACAGAGGAUUGAGCAUCA
B18: ENSG00000070961:be:win_3501|CDS|ENSG00000070961|bound_else_gene|NA|bound_elsewhere_windowed (ssRNA)
RNA: GGGAGUUCUACAGUCCGACGAUCCGAAGAUGAUGCUCCUACAAAACGUAACUCCAGUCCUCCACCCUCUCCCAACAAAAAUAACAAUGCUGUUGACAGUGGAAUUCACCUUACAAUAGAAAUGAACAAGUCUGCUACCUCUUCCAACAGAGGAUUGAGCAUCA
B19: ENSG00000107863:be:win_901|CDS|ENSG00000107863|bound_else_gene|NA|bound_elsewhere_windowed (ssRNA)
RNA: GGGAGUUCUACAGUCCGACGAUCGUGAGGUAUGGCGUGAGUGAGCAGACCUCUUUAAAAACAGUGUCAAGAACCACAUCACCACCAUUAUCAAUUCCCACCACUCAUCUAAUUCAUCAGCCUGCAGGCUCCAGAUCACUGGAACAACAGAGGAUUGAGCAUCA
B20: chr8:87872786:87873971:-|CDS|ENSG00000176566|control|control|control (ssRNA)
RNA: GGGAGUUCUACAGUCCGACGAUCUUGUCUCAGCAGGUCCUGUUGACCAACGUGGUGACGGGACACCAGCAGUCAUUUGGGACUAGCAGUGAUGUCUUGGCCCAGCAGUUUGCAAUCAUGACUCCUUUGCUGUUUAAUGGCUGUCAACAGAGGAUUGAGCAUCA
B21: chr14:96341565:96341677:-|CDS|ENSG00000066739|unk|FALSE|unique (ssRNA)
RNA: GGGAGUUCUACAGUCCGACGAUCCUGGAACCCCAAAAUUAUUUAUGAGCCACACCCACAGCUAACUAGAAAUUUACCAGAGAUAGCACCUUCUGACCCAGUGCAGAUUGGACGGUUAAUUGGUAGGUUGGAGUUGAGUCUCACCAACAGAGGAUUGAGCAUCA
B22: chr15:66548596:66548706:+|3pUTR|ENSG00000174442|unk|total|mutant (ssRNA)
RNA: GGGAGUUCUACAGUCCGACGAUCCCGCAAGGGCUCUGAAAUGACAAAGAGAACGAGCACCACAAAUGAGAACAGGAUCAUUUCCGUAAAUACAGCUUUAUCCCAAAAGCUUUAACUGUAUUGGGAAAACUUAAAAAACCGCAUCAACAGAGGAUUGAGCAUCA

The assay concerns the target MSI1 full-length (mouse, UniProt Q61474 1-362). Briefly: nsRBNS (natural sequence RNA bind-n-seq); RBNS binding buffer (assumed for nsRBNS): 25 mM Tris pH 7.5, 150 mM KCl, 3 mM MgCl2, 0.01% Triton X-100, 500 ug/ml BSA, 20 U/ml SUPERase-In, 4 C; UNK is unkempt and MSI1 is Musashi-1; names of the RNAs are library labels; protein concentration not given here; high values mean tight binding.
Sequence of UniProt Q61474 (Q61474 whole entry): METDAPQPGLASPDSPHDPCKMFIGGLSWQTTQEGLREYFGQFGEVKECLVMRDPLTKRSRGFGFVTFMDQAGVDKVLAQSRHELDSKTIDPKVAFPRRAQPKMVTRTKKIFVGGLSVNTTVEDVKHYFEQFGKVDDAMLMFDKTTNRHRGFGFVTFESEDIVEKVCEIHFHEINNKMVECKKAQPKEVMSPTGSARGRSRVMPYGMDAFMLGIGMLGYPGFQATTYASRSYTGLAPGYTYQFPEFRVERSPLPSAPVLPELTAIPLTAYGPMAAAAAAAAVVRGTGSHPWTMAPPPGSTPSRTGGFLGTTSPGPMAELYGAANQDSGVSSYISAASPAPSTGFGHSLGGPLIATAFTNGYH
For B1, the binding signal turned out to be 0.887 enrichment R.
For B2, the binding signal amounted to 2 enrichment R.
Next, B3: 0.338 enrichment R; B4: 0.817 enrichment R.
B5 registered a binding signal of 0.42 enrichment R.
Next, B6: 0.334 enrichment R; B7: 1.39 enrichment R; B8: 0.736 enrichment R.
The result for B9 reads 0.72 enrichment R.
B10 yielded a binding signal of 0.35 enrichment R.
The result for B11 reads 0.307 enrichment R; that for B12, 0.422 enrichment R; that for B13, 3.73 enrichment R.
The result for B14 reads 0.284 enrichment R; that for B15, 0.482 enrichment R.
Next, B16: 0.444 enrichment R; B17: 0.343 enrichment R.
In the case of B18, the binding signal was 1.48 enrichment R.
B19 registered a binding signal of 0.563 enrichment R.
Next, B20: 0.253 enrichment R.
Next, B21: 5.06 enrichment R; B22: 0.196 enrichment R.
